Experimental data: patent US20260232825A1, “LINKER-DRUG MOLECULE AND ANTIBODY DRUG CONJUGATE, PREPARATION METHOD THEREFOR AND USE THEREOF” (SHANGHAI ESCUGEN BIOTECHNOLOGY CO., LTD., priority 2023, published 2026)

Experiments:
[1] = system: OVCAR-3 mouse subcutaneous tumor; assay: Mouse xenograft tumor model of folate receptor positive OVCAR-3 cells; type: in vivo; conditions: single administration at 5 mg/kg, day 24
[2] = system: IGROV1 mouse subcutaneous tumor; assay: Mouse xenograft tumor model of folate receptor positive IGROV1 cells; type: in vivo; conditions: 5 mg/kg once a week, total of two times, day 30

B1: Farletuzumab-LD-38 (conjugate, chains of the INN, looked up)
heavy: EVQLVESGGGVVQPGRSLRLSCSASGFTFSGYGLSWVRQAPGKGLEWVAMISSGGSYTYYADSVKGRFAISRDNAKNTLFLQMDSLRPEDTGVYFCARHGDDPAWFAYWGQGTPVTVSS[human IgG1 constant region omitted here]
light: DIQLTQSPSSLSASVGDRVTITCSVSSSISSNNLHWYQQKPGKAPKPWIYGTSNLASGVPSRFSGSGSGTDYTFTISSLQPEDIATYYCQQWSSYPYMYTFGQGTKVEIKRTVAAPSVFIFPPSDEQLKSGTASVVCLLNNFYPREAKVQWKVDNALQSGNSQESVTEQDSKDSTYSLSSTLTLSKADYEKHKVYACEVTHQGLSSPVTKSFNRGEC
modifications: drug-linker LD-38 conjugate
[1]
  tumor inhibition rate (TGI): 93.5%
[2]
  tumor inhibition rate (TGI): 100%
